In all, about 18,000 sequences were measured (“TetR repression strength (sort-seq, GFP reporter)”: median about 0.23, highest 2% from about 0.68 on). The list shows a part of the results.
Each sequence was assayed against TetR (class B, Tn10) (UniProt P04483) (assay: TetR repression strength (sort-seq, GFP reporter) (relative to tetO2 = 1); higher = stronger repression). Details: E. coli.
Chain of UniProt P04483 (P04483 whole entry): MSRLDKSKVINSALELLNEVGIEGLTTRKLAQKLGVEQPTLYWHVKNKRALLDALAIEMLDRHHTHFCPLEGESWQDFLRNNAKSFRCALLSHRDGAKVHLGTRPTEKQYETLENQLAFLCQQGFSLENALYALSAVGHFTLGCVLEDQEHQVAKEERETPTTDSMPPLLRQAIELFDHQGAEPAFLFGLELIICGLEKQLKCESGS
In short: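 Three independent transformations of E. coli SIG10-MAX were made with a low-copy plasmid library randomizing eight operator positions between a constitutive promoter and sfGFP, with constitutive TetR. Following 5 h at 37 °C in LB plus 50 µg/mL chloramphenicol, 10^6 cells went through FACS into 13 fluorescence bins, and each bin was sequenced by Illumina. Repression strength was defined as the top bin index plus one minus the read-weighted mean bin, divided by the unaltered operator's value. Averages included only members reaching ≥30 reads in all replicates with a CV ≤0.5.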
In the case of TCCCATGAAGTTGTAGAGA, the TetR repression strength is reported as 0.515.
In the case of TCCCTGAAAGTTTTTGAGA, the TetR repression strength is reported as 0.117.
TCCCATACAGTAGGTGAGA was tested, and the TetR repression strength was 0.158.
TCCCGCTTAGTGTGGGAGA showed a TetR repression strength of 0.271.
TCCCGTTAAGTTTAAGAGA was tested, and the TetR repression strength was 0.504.
TCCCCGGGAGTCGGAGAGA showed a TetR repression strength of 0.267.
Sequence TCCCCGGCAGTACGTGAGA has a TetR repression strength of 0.372.
For TCCCGTGAAGTCCCGGAGA, the TetR repression strength was 0.26.
Work on TCCCTCTTAGTGGGTGAGA yielded a TetR repression strength of 0.123.
Work on TCCCATCCAGTAGTCGAGA yielded a TetR repression strength of 0.2.
In the case of TCCCTGGGAGTCCATGAGA, the TetR repression strength is reported as 0.395.
Sequence TCCCCCGGAGTCAGCGAGA has a TetR repression strength of 0.533.
Sequence TCCCAGACAGTGATGGAGA has a TetR repression strength of 0.213.
Work on TCCCTAAAAGTGCGTGAGA yielded a TetR repression strength of 0.299.
Sequence TCCCGAGGAGTGTGCGAGA has a TetR repression strength of 0.252.
With TCCCATAGAGTGAACGAGA the TetR repression strength was 0.295.
Work on TCCCAGCGAGTAACCGAGA yielded a TetR repression strength of 0.104.
TCCCGCGGAGTGACGGAGA showed a TetR repression strength of 0.38.
TCCCGATTAGTTTGCGAGA gave a TetR repression strength of 0.299.
Work on TCCCGTATAGTCCTTGAGA yielded a TetR repression strength of 0.415.
TCCCGCAGAGTTAACGAGA gave a TetR repression strength of 0.0942.
Work on TCCCATTGAGTCTAGGAGA yielded a TetR repression strength of 0.177.
In the case of TCCCTGTCAGTGGTAGAGA, the TetR repression strength is reported as 0.476.
Work on TCCCTAGTAGTTTGAGAGA yielded a TetR repression strength of 0.225.
TCCCACCAAGTGAAAGAGA was tested, and the TetR repression strength was 0.405.
Sequence TCCCCCACAGTCGTGGAGA has a TetR repression strength of 0.0987.
With TCCCGGATAGTTATGGAGA the TetR repression strength was 0.238.
For TCCCCGCTAGTTGTAGAGA, the TetR repression strength was 0.253.
With TCCCGAGGAGTCGGCGAGA the TetR repression strength was 0.0782.
TCCCTGAAAGTAGCAGAGA was tested, and the TetR repression strength was 0.302.
With TCCCTCAGAGTGTGGGAGA the TetR repression strength was 0.165.
With TCCCCTCTAGTACGTGAGA the TetR repression strength was 0.207.
With TCCCAAGTAGTCACGGAGA the TetR repression strength was 0.295.
TCCCTGCAAGTAGAGGAGA showed a TetR repression strength of 0.42.
Work on TCCCGGCGAGTCAATGAGA yielded a TetR repression strength of 0.374.
Work on TCCCGTTCAGTTGCTGAGA yielded a TetR repression strength of 0.512.
TCCCGTTAAGTGGGAGAGA gave a TetR repression strength of 0.398.
TCCCATGCAGTCTACGAGA gave a TetR repression strength of 0.226.
TCCCGGGCAGTCCCTGAGA was tested, and the TetR repression strength was 0.564.
Sequence TCCCTGCGAGTTCGGGAGA has a TetR repression strength of 0.142.
For TCCCTGACAGTCTCGGAGA, the TetR repression strength was 0.212.
For TCCCTGTCAGTTTGGGAGA, the TetR repression strength was 0.459.
Work on TCCCTTTGAGTGTGGGAGA yielded a TetR repression strength of 0.194.
TCCCTGTCAGTATCAGAGA showed a TetR repression strength of 0.0926.
TCCCATAAAGTACGCGAGA showed a TetR repression strength of 0.12.
Work on TCCCCGGGAGTGTGTGAGA yielded a TetR repression strength of 0.264.
Work on TCCCATCGAGTGCCCGAGA yielded a TetR repression strength of 0.294.
For TCCCTCTAAGTAGTTGAGA, the TetR repression strength was 0.188.
TCCCGAATAGTCTTCGAGA gave a TetR repression strength of 0.
In the case of TCCCATCCAGTTACTGAGA, the TetR repression strength is reported as 0.311.
For TCCCCGTCAGTCTCGGAGA, the TetR repression strength was 0.642.
